Laboratory results taken from the supplement of paper PMC11417369.
This is one part of the list.

Tested on: PF3D7_0420300 AP2 domain 1 (GST-tagged)
Test: gcPBM binding intensity (ln(normalized median fluorescence intensity)); higher = stronger DNA binding
Outline: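 After 1 h on an Agilent 4 × 180k array of primer-extended double-stranded 36-bp intergenic genomic probes and negative controls, bound GST-tagged P. falciparum DNA-binding domains were detected with Alexa488 anti-GST antibody and scanned at 488 nm. The domains had been expressed in E. coli, and binding took place in 1× PBS with 1% milk, 0.2 mg/ml BSA, 0.5% salmon testes DNA and 0.03% Triton X-100. Binding intensity is the highest Masliner-normalised natural-log median intensity across replicate spots of either probe orientation.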

Row | Sequence | gcPBM binding intensity (ln)
1 | ATAAATACATATGTGTGTACACATTATATATATATA [XGTACX_site1486] | 9.46
2 | GAAAAATTAAAACCTACACACACATTTAAAAAAAAA [CACACA_site9005] | 9.9
3 | ATATATATATAATCATCACACATGCAGCCCTGATGA [CACACA_site5500] | 9.28
4 | TATATATTACATACATGTACCCAAAAAAAAAAAAAA [XGTACX_site1168] | 9.08
5 | GAATGAATACGTTTTACACACTTGAATCTAATTTCA [CACACA_site6593] | 9.29
6 | ATTCTACTTTTATTTATTTATTTGTTTATATATATA [XGTACX_negctrl_site609] | 9.75
7 | TTTTTTATTCATGTAACACACATTTAATTATGAATT [CACACA_site2706] | 9.29
8 | TATACATACACATACACACATACACCCATACACATA [CACACA_site1746] | 9.93
9 | ATCCTAATATTGAACTGTACCTTATATGTTATTATA [XGTACX_site1014] | 9.46
10 | GGTTATATATTTTTTGCACACCAAAAAAGAGAATAT [CACACA_site2731] | 9.37
11 | ACGTGTATTTATTTAGTGCACTTTATATTTTTTCTT [GTGCAC_site9426] | 9.58
12 | TATATATATATATATACACACATATATACATATATA [CACACA_site4043] | 9.25
13 | TTATAAATAAAAAATACACACATATATTTATTTATA [CACACA_site6242] | 9.34
14 | ATAATATATGAAAGTGGTACACAAAGGAAAATAAAA [XGTACX_site333] | 9.52
15 | AATAATAAATCAAACTGTACATATATTTTCAATCTA [XGTACX_site3344] | 9.3
16 | TGTAGTCTGGAGAAAAGTACACAGTATCCGGTAACT [XGTACX_site4934] | 9.18
17 | TTTTTTTTTTTGTTCACACATATATATATATATATA [CACACA_site5376] | 9.36
18 | AATGTATATATATATATATATATATATATTTATTTA [CACACA_negctrl_site113] | 8.89
19 | AAGAAAATAGAAAATACACACAGCAAACAGAGGAAT [CACACA_site3785] | 9.97
20 | ATATATATATATTTATGTACATATATTTTTTTTTTT [XGTACX_site8558] | 9.25
21 | AATAAATAAATACATCTCAGTATATAAACAAACAAA [CACACA_negctrl_site1604] | 9.52
22 | ATGAAACATGTATATTGTACTCTGGATCAATTTAAT [XGTACX_site6413] | 9.07

Row | Sequence | gcPBM binding intensity (ln)
23 | AAGCCTTAAAAGGAAAGTACGTATATATATATATAT [XGTACX_site8559] | 9.06
24 | ATATTTAATTAAAAGAGTACTTAAATAAAATAAATG [XGTACX_site2149] | 9.13
25 | AAATTTATTATATATACATGCAATCATAAATAATGT [TGCATGCA_site539] | 9.17
26 | AATACATATAATACAACACACAAGTAATATAAACCT [CACACA_site3597] | 9.93
27 | GGATATAACAAACACACACACACATATATATATATT [CACACA_site4141] | 10.2
28 | TTTAAATGAAAAAAAGGTACACAATATTATTCTTAT [XGTACX_site8612] | 9.2
29 | AAAAAAAAAAAACACACACACACACTAGTATATAAA [CACACA_site4783] | 10.2
30 | AATACTTATTATGAAACACACACCAAAACTACATAA [CACACA_site270] | 9.76
31 | AAGAAAAAAAAAAATATATATACATATATATATATA [TGCATGCA_negctrl_site485] | 8.83
32 | AAAATAAAATAAAACACAAAAAAATAAAACAAAATA [CACACA_negctrl_site16] | 9.8
33 | AAATAAAATATATACATATATATATTATTTAGTAAT [XGTACX_negctrl_site375] | 9.15
34 | TATATATCCATGTGTACACACAAAAAAAAATAAAGT [CACACA_site7107] | 9.94
35 | AAATATGTTTATATATGTACTTATAATTCAAAATAT [XGTACX_site2167] | 9.09
36 | TCTATGCGTTTTAATAGTACATATAAAATTTATACA [XGTACX_site6986] | 9.09
37 | TAATTAACAAACTATAGTACACAAAATACTTCATAT [XGTACX_site6375] | 9.44
38 | ATATACACACATAAGTGTACTTATATTTCATATATA [XGTACX_site8646] | 9.44
39 | CCATGTCACAATTTTTCACACACAAAATTTATATAC [CACACA_site8628] | 9.72
40 | AAAAAGGATAAACACACACACACACCGATATATATA [CACACA_site8206] | 10.2
41 | TTATTTTTGTGTAAGGTGCTATATATAATGTTTTTA | 9.43
42 | AAATGTGATATAAGTACACACACATATGTATATATA [CACACA_site8539] | 9.6
43 | AACGAAATCATCAAGTGTACTAGTTTATTATTAATA [XGTACX_site6161] | 9.2
44 | TATGTATATTATATGACACACATTTATATATATATA [CACACA_site1167] | 9.32

Row | Sequence | gcPBM binding intensity (ln)
45 | TTTTGTTGATTTATATCTGTAGGGTTTAATATAACA [XGTACX_negctrl_site174] | 9.13
46 | TTAACTATGAATACATGTACATGAAAATATTTCAAT [XGTACX_site1069] | 9.04
47 | GGCAAATTTATTATACCCACATACATACATACATAC [XGTACX_negctrl_site186] | 9.24
48 | AAAATTAAACAAAGTTGTACAAAATAATAATAAAAG [XGTACX_site7515] | 9.56
49 | AAATTAATAAAAAATGGTACACAAAATGGATGTATA [XGTACX_site1561] | 9.34
50 | TTTATATTAATTGATGTGCACTGAAATATTTGTCCA [GTGCAC_site9655] | 9.05
51 | ACCCTATAGGTAACTACACACCGCATATTGTTTACT [CACACA_site7436] | 9.64
52 | ATTAATAATCGAAAGGTGCACTTTGATTTGATAACA | 9.26
53 | TAATTAAAATTATTTATAAATTAGTATATTTCTATA [CACACA_negctrl_site663] | 8.85
54 | TTATTATTTTATCGTAGTACACCTAAATTATAAAAC [XGTACX_site5251] | 8.99
55 | TTACAAAAATTTTGTTCACACATAAAAATATGTTAC [CACACA_site5740] | 9.1
56 | TAATAAATTATTTTTTATTATTTTAATAACACTTCA [CACACA_negctrl_site3] | 9
57 | ATATATTTTTCAAAATGTACAAATAATTAAATACCA [XGTACX_site875] | 9.18
58 | ATATAAAAAAATTGCACACATAAATATATACATATA [CACACA_site1218] | 9.45
59 | GATACATAGAAACACACACACATACATATATACATA [CACACA_site3438] | 10
60 | TTTATGTACAGACATATACACACCTCTATAATATAT [CACACA_site730] | 9.45
61 | TCACAAAAAGAACATTGATATTATTATAAAATCGTC [GTGCAC_negctrl_site177] | 9.17
62 | TATTGTAATATTATATATATCTATTATGTATATAAA [CACACA_negctrl_site454] | 9.02
63 | AATTATATATTAAAAAGTACAAGTTAATATAATATA [XGTACX_site2737] | 9.34
64 | GTAATTAAAATATATACACACAAAGGCTATTAAATA [CACACA_site1011] | 9.67
65 | ATTTATGAAAGAAATAGTACACACATAAACATTTGT [XGTACX_site5862] | 9.63
66 | TATATAAAATATTAATGTACATATAAATATATATAT [XGTACX_site6656] | 9.14

Row | Sequence | gcPBM binding intensity (ln)
67 | TTTAATACGAATGAGGCACACACCTAGTATACATGC [CACACA_site621] | 9.55
68 | TTTAATTTTTTTAAAACACACAAATATATATATATA [CACACA_site3898] | 9.1
69 | CAAAATAATATATATACACACACACCGATATATATA [CACACA_site8082] | 10.2
70 | GTTAGCATATTAAGTTGTACACAATTATTCTTCAAT [XGTACX_site8324] | 9.29
71 | TGGTATTTTGATGATAAAAGGAAATTTTTTTTATAC [XGTACX_negctrl_site111] | 8.85
72 | AACAAAGAAAATACATGTACAAAAAATATTAACGAA [XGTACX_site287] | 9.76
73 | AATATAATATAATGCACACATAAACAAAAAAAAAAA [CACACA_site783] | 9.54
74 | AATCATATTTAGATTACACACAGTTTAAATATTTTA [CACACA_site1263] | 9.29
75 | TATATATATATATATATATATATATATATAATATTA [XGTACX_negctrl_site558] | 8.78
76 | TATTTAAATGGATGCACACATGCATTAAATAAAATA [CACACA_site3433] | 9.1
77 | TGTAATGTTTACAACACACAAATTATAAATACAAAA [CACACA_site5047] | 9.41
78 | TCGATATATAGACACACACACTTTTAATAATTAAAT [CACACA_site7726] | 9.7
79 | TACAAACAGACATATACACACAAAAAAAAAATAAAA [CACACA_site2562] | 9.91
80 | TTATGCAGATAAAAGAGTACATATTCGTTACATACA [XGTACX_site2849] | 9.21
81 | TATATTTTAAAATTATGTACATATATAGATAAATGT [XGTACX_site1349] | 9.09
82 | ATATAAATATAGTGTGCACACACATAATATATATAT [CACACA_site8713] | 9.85
83 | ATATATATATATAATACACACATCATAAAATATGTA [CACACA_site2518] | 9.48
84 | AAAATAAATTGTGAAGGTACACAAATTATTATGTGG [XGTACX_site4196] | 9.19
85 | TATCATCATGTATGTACACACATACAGATATTATGT [CACACA_site4888] | 9.48
86 | AAATACAAAATTGTTACACACATATTAATTATGACA [CACACA_site476] | 9.47
87 | GGAAATATAAAATCATGTACATATGTATATATAATT [XGTACX_site5491] | 9.47
88 | ATGAATATATATATTTGTACATATGTATATATATAT [XGTACX_site7527] | 9.19
